# From the supplement of paper PMC8728848
# Some of the results follow.
# B1: Surfactant Protein D (Human); Neck + Carbohydrate Recognition Domain (NCRD) (Homo sapiens) (protein)
# chain: MLLFLLSALVLLTQPLGYLEAEMKTYSHRTMPSACTLVMCSSVESGLPGRDRDGREGPRGEKGDPGLPGAAGQAGMPGQAGPVGPKGDNGSVGEPGPKGDTGPSGPPGPPGVPGPAGREGALGKQGNIGPQGKPGPKGEAGPKGEVGAPGMQGSAGARGLAGPKGERGVPGERGVPGNTGAAGSAGAMGPQGSPGARGPPGLKGDKGIPGDKGAKGESGLPDVASLRQQVEALQGQVQHLQAAFSQYKKVELFPNGQSVGEKIFKTAQFVKPFTEAQLLCTQAGGQLASPRSAAENAALQQLVVAKNEAAFLSMTDSKTEGKFTYPTGESLVYSNWAPGEPNDNGGSEDCVEIFTNGKWNDRACGEKRLVVCEF
# Key:
# Assay in all cases: glycan array binding signal (z-score within array); higher = stronger binding
# Settings in all cases: glycan notation: IUPAC condensed, linker removed; mutation: D325N
# [1] = target: Fuc(a1-3)[Gal(b1-4)]GlcNAc(b1-2)Man(a1-6)[Gal(b1-4)GlcNAc(b1-2)Man(a1-3)]Man(b1-4)GlcNAc(b1-4)GlcNAc
# Method in brief: (§1)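 The Consortium for Functional Glycomics database supplied 3228 glycan arrays, of which those lacking an available protein sequence were dropped. The binding signal, a within-array Z-score, was averaged across arrays of the same protein sequence and across linkers. Negative scores can be read as non-binding.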
# [2] = target: Fuc(a1-3)[Gal(b1-4)]GlcNAc(b1-3)Gal(b1-3)[Fuc(a1-4)]GlcNAc
# Method in brief: as §1
# [3] = target: Fuc(a1-3)[Gal(b1-4)]GlcNAc(b1-4)Gal(b1-4)[Fuc(a1-3)]GlcNAc
# Method in brief: as §1
# [4] = target: Fuc(a1-3)[Gal(b1-4)]GlcNAc(b1-4)Gal(b1-4)[Fuc(a1-3)]GlcNAc(b1-4)Gal(b1-4)[Fuc(a1-3)]GlcNAc
# Method in brief: as §1
# [5] = target: Fuc(a1-3)[Gal(b1-4)]GlcNAc6S
# Method in brief: as §1
# [6] = target: Fuc(a1-3)[Gal3S(b1-4)]Glc6S
# Method in brief: as §1
# [7] = target: Fuc(a1-3)[Gal3S(b1-4)]GlcNAc
# Method in brief: as §1
# [8] = target: Fuc(a1-3)[Gal3S(b1-4)]GlcNAc6S
# Method in brief: as §1
# [9] = target: Fuc(a1-3)[GalNAc(b1-4)]GlcNAc
# Method in brief: as §1
# Fuc(a1-4)GlcNAc = target: Fuc(a1-4)GlcNAc
# Method in brief: as §1
# Fuc(b1-3)GlcNAc = target: Fuc(b1-3)GlcNAc
# Method in brief: as §1
# Gal(a1-2)Gal = target: Gal(a1-2)Gal
# Method in brief: as §1
# Gal(a1-3)Gal = target: Gal(a1-3)Gal
# Method in brief: as §1
# Gal(a1-3)Gal(b1-3)GlcNAc = target: Gal(a1-3)Gal(b1-3)GlcNAc
# Method in brief: as §1
# Gal(a1-3)Gal(b1-4)Glc = target: Gal(a1-3)Gal(b1-4)Glc
# Method in brief: as §1
# Gal(a1-3)Gal(b1-4)GlcNAc = target: Gal(a1-3)Gal(b1-4)GlcNAc
# Method in brief: as §1
# [10] = target: Gal(a1-3)Gal(b1-4)[Fuc(a1-3)]GlcNAc
# Method in brief: as §1
# Gal(a1-3)GalNAc = target: Gal(a1-3)GalNAc
# Method in brief: as §1
# [11] = target: Gal(a1-3)[Gal(a1-4)]Gal(b1-4)GlcNAc
# Method in brief: as §1
# Gal(a1-4)Gal(b1-4)Glc = target: Gal(a1-4)Gal(b1-4)Glc
# Method in brief: as §1
# Gal(a1-4)Gal(b1-4)GlcNAc = target: Gal(a1-4)Gal(b1-4)GlcNAc
# Method in brief: as §1
# Gal(a1-4)GlcNAc = target: Gal(a1-4)GlcNAc
# Method in brief: as §1
# Gal(a1-6)Glc = target: Gal(a1-6)Glc
# Method in brief: as §1
# Gal(b1-2)Gal = target: Gal(b1-2)Gal
# Method in brief: as §1
# Gal(b1-3)Gal = target: Gal(b1-3)Gal
# Method in brief: as §1
# Gal(b1-3)Gal(b1-4)GlcNAc = target: Gal(b1-3)Gal(b1-4)GlcNAc
# Method in brief: as §1
# Gal(b1-3)GalNAc = target: Gal(b1-3)GalNAc
# Method in brief: as §1
# [12] = target: Gal(b1-3)GalNAc(b1-3)Gal(a1-4)Gal(b1-4)Glc
# Method in brief: as §1
# [13] = target: Gal(b1-3)GalNAc(b1-4)Gal(b1-4)Glc
# Method in brief: as §1
# [14] = target: Gal(b1-3)GalNAc(b1-4)[Neu5Ac(a2-3)]Gal(b1-4)Glc
# Method in brief: as §1
# Gal(b1-3)GlcNAc = target: Gal(b1-3)GlcNAc
# Method in brief: as §1
# [15] = target: Gal(b1-3)GlcNAc(b1-2)Man(a1-3)[Gal(b1-3)GlcNAc(b1-2)Man(a1-6)]Man(b1-4)GlcNAc(b1-4)GlcNAc
# Method in brief: as §1
# [16] = target: Gal(b1-3)GlcNAc(b1-3)Gal(b1-3)GlcNAc
# Method in brief: as §1
# [17] = target: Gal(b1-3)GlcNAc(b1-3)Gal(b1-4)Glc
# Method in brief: as §1
# [18] = target: Gal(b1-3)GlcNAc(b1-3)Gal(b1-4)GlcNAc
# Method in brief: as §1
# [19] = target: Gal(b1-3)[Fuc(a1-4)]GlcNAc
# Method in brief: as §1
# [20] = target: Gal(b1-3)[Fuc(a1-4)]GlcNAc(b1-3)Gal(b1-3)[Fuc(a1-4)]GlcNAc
# Method in brief: as §1
# [21] = target: Gal(b1-3)[Fuc(a1-4)]GlcNAc(b1-3)Gal(b1-4)GlcNAc
# Method in brief: as §1
binder,measurement,setting,value
B1,glycan array binding signal (z-score),[1],-0.133
same,glycan array binding signal (z-score),[2],-0.147
same,glycan array binding signal (z-score),[3],-0.114
same,glycan array binding signal (z-score),[4],-0.096
same,glycan array binding signal (z-score),[5],-0.142
same,glycan array binding signal (z-score),[6],-0.117
same,glycan array binding signal (z-score),[7],-0.097
same,glycan array binding signal (z-score),[8],-0.146
same,glycan array binding signal (z-score),[9],-0.128
same,glycan array binding signal (z-score),Fuc(a1-4)GlcNAc,-0.136
same,glycan array binding signal (z-score),Fuc(b1-3)GlcNAc,-0.144
same,glycan array binding signal (z-score),Gal(a1-2)Gal,-0.109
same,glycan array binding signal (z-score),Gal(a1-3)Gal,-0.145
same,glycan array binding signal (z-score),Gal(a1-3)Gal(b1-3)GlcNAc,-0.169
same,glycan array binding signal (z-score),Gal(a1-3)Gal(b1-4)Glc,-0.123
same,glycan array binding signal (z-score),Gal(a1-3)Gal(b1-4)GlcNAc,-0.142
same,glycan array binding signal (z-score),[10],-0.123
same,glycan array binding signal (z-score),Gal(a1-3)GalNAc,-0.111
same,glycan array binding signal (z-score),[11],-0.155
same,glycan array binding signal (z-score),Gal(a1-4)Gal(b1-4)Glc,-0.147
same,glycan array binding signal (z-score),Gal(a1-4)Gal(b1-4)GlcNAc,-0.144
same,glycan array binding signal (z-score),Gal(a1-4)GlcNAc,-0.096
same,glycan array binding signal (z-score),Gal(a1-6)Glc,-0.133
same,glycan array binding signal (z-score),Gal(b1-2)Gal,-0.147
same,glycan array binding signal (z-score),Gal(b1-3)Gal,-0.159
same,glycan array binding signal (z-score),Gal(b1-3)Gal(b1-4)GlcNAc,-0.126
same,glycan array binding signal (z-score),Gal(b1-3)GalNAc,-0.139
same,glycan array binding signal (z-score),[12],-0.128
same,glycan array binding signal (z-score),[13],-0.152
same,glycan array binding signal (z-score),[14],-0.152
same,glycan array binding signal (z-score),Gal(b1-3)GlcNAc,-0.13
same,glycan array binding signal (z-score),[15],-0.141
same,glycan array binding signal (z-score),[16],-0.128
same,glycan array binding signal (z-score),[17],-0.146
same,glycan array binding signal (z-score),[18],-0.112
same,glycan array binding signal (z-score),[19],-0.124
same,glycan array binding signal (z-score),[20],-0.15
same,glycan array binding signal (z-score),[21],-0.131
